In the supplement of paper PMC8285479:
Structures can show the parent of a compound that is named as a salt. ± gives the standard deviation of the averaged measurements. Whole data set: some 1,900 compounds, median “normalised cell viability (NPI; 0 = phenylarsine oxide control, 1 = DMSO control)” near 1, cut for the lowest 2% near 0.039. The list shows a part of the results.

Tested on: NCI-H1944
Assay: normalised cell viability (NPI; 0 = phenylarsine oxide control, 1 = DMSO control) (fraction of DMSO control); NCI-H1944 is a non-small cell lung cancer line; higher = more viable cells (less compound toxicity)
Details: 6 days
[1] = glucocorticoid arm: hydrocortisone 2.75 uM co-treatment, compound 1 µM
[2] = glucocorticoid arm: hydrocortisone 2.75 uM co-treatment, compound 5 µM
[3] = glucocorticoid arm: hydrocortisone 2.75 uM pre-treated 2 days and continued, compound 1 µM
[4] = glucocorticoid arm: hydrocortisone 2.75 uM pre-treated 2 days and continued, compound 5 µM
[5] = glucocorticoid arm: vehicle, compound 1 µM
[6] = glucocorticoid arm: vehicle, compound 5 µM
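Also: CTB read-out in 384-well plates, mean of triplicate wells, normalised per plate against 1 µM phenylarsine oxide and 0.1% DMSO, compounds added 24 h after seeding.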

Structure (SMILES) | normalised cell viability [1] | normalised cell viability [2] | normalised cell viability [3] | normalised cell viability [4] | normalised cell viability [5] | normalised cell viability [6]
C[C@@H]1O[C@@H](O[C@H]2C[C@@H](O)[C@]3(CO)[C@H]4[C@H](O)C[C@]5(C)[C@@H]([C@@H]6COC(=O)C6)CC[C@]5(O)[C@@H]4CC[C@]3(O)C2)[C@H](O)[C@H](O)[C@H]1O [Dihydroouabain] | 1.027 ± 0.0058 | 0.0138 ± 0.013 | 1.01 ± 0.015 | 0.143 ± 0.081 | 0.98 ± 0.017 | 0.00677 ± 0.002
COC(=O)c1cc2c(cn1)[nH]c1ccccc12 [Methyl beta-carboline-3-carboxylate] | 1.013 ± 0.0058 | 1 ± 0.019 | 1.01 ± 0.018 | 1 ± 0.024 | 1.017 ± 0.0058 | 1.02
CCCn1c(C)c(C(=O)c2cccc3ccccc23)c2ccccc21 | 1.001 ± 0.0083 | 1.03 ± 0.023 | 1.007 ± 0.0058 | 1.06 ± 0.09 | 0.9977 ± 0.004 | 1.01 ± 0.023
O=P1(N(CCCl)CCCl)NCCCO1 (centres undefined) [Cyclophosphamide monohydrate] | 0.992 ± 0.015 | 0.997 ± 0.025 | 1.01 ± 0.011 | 1.01 | 0.999 ± 0.011 | 1.017 ± 0.0058
O=P1(N(CCCl)CCCl)NCCCO1 (centres undefined) [Cyclophosphamide monohydrate; Cyclophosphamide] | 1.02 ± 0.021 | 1.05 ± 0.01 | 1.017 ± 0.0058 | 1.04 ± 0.01 | 1.01 ± 0.01 | 1.02
CC(=O)OCC1=C(C(=O)[O-])N2C(=O)[C@@H](NC(=O)CCC[C@@H](N)C(=O)[O-])[C@H]2SC1.[Zn+2] [Cephalosporin C zinc salt] | 1.02 ± 0.01 | 1.05 ± 0.03 | 1.03 ± 0.015 | 1.03 ± 0.021 | 1.02 ± 0.016 | 1.023 ± 0.0058
CN1C(=O)CCS(=O)(=O)C1c1ccc(Cl)cc1 (centres undefined) [Chlormezanone] | 1.002 ± 0.0068 | 0.995 ± 0.015 | 1.003 ± 0.0058 | 1.01 ± 0.018 | 0.991 ± 0.003 | 0.996 ± 0.0035
O=C(O)[C@@H]1CCN1 [L-azetidine-2-carboxylic acid] | 0.9857 ± 0.0025 | 0.975 ± 0.011 | 0.97967 ± 0.00058 | 0.968 ± 0.0099 | 0.973 ± 0.011 | 0.9697 ± 0.008
O=C(O)Cc1cnc[nH]1 [Imidazole-4-acetic acid hydrochloride] | 1.02 ± 0.021 | 0.995 ± 0.026 | 1.02 ± 0.01 | 0.991 ± 0.01 | 1.033 ± 0.0058 | 1.033 ± 0.0058
C[C@H]1OC[C@@H](C[N+](C)(C)C)O1 [(+)-cis-Dioxolane] | 1.017 ± 0.0058 | 1.02 ± 0.01 | 1 ± 0.018 | 1.04 ± 0.081 | 1.01 ± 0.01 | 1.006 ± 0.0063
c1ccc2sc(C3(N4CCCCC4)CCCCC3)cc2c1 [BTCP hydrochloride] | 1 ± 0.0095 | 0.991 ± 0.017 | 0.998 ± 0.01 | 1.01 ± 0.021 | 0.9927 ± 0.0071 | 0.997 ± 0.003
C[N+]1(C)C2CCC1CC(OC(=O)c1c[nH]c3ccccc13)C2 (centres undefined) [3-Tropanylindole-3-carboxylate methiodide] | 0.9987 ± 0.0099 | 0.994 ± 0.014 | 1.01 ± 0.018 | 1.01 | 1.01 | 1.003 ± 0.0064
COc1cc(CC(C)N)c(OC)cc1I (racemic) [(±)-DOI hydrochloride] | 1.01 ± 0.01 | 0.983 ± 0.023 | 0.998 ± 0.013 | 1.02 ± 0.01 | 0.998 ± 0.0035 | 0.994 ± 0.004
N#C/C(=C\c1ccc(O)c(O)c1)C(N)=S [Tyrphostin 47] | 0.9827 ± 0.0031 | 0.995 ± 0.0056 | 1 ± 0.027 | 0.9963 ± 0.0063 | 0.98 ± 0.0044 | 0.9767 ± 0.0074
CCCC[N+]1(C)[C@@H]2C[C@@H](OC(=O)[C@H](CO)c3ccccc3)C[C@H]1[C@@H]1O[C@@H]12 (single isomer, unassigned; (-)) [(-)-Scopolamine,n-Butyl-, bromide] | 1.017 ± 0.0058 | 1.02 ± 0.026 | 0.88 ± 0.21 | 1.03 ± 0.011 | 1.01 | 1.007 ± 0.0058
C1CN1c1nc(N2CC2)nc(N2CC2)n1 [Triethylenemelamine] | 1.023 ± 0.0058 | 0.775 ± 0.022 | 1.017 ± 0.0058 | 0.989 ± 0.015 | 0.993 ± 0.0082 | 0.273 ± 0.028
COc1ccc(OC)c(C(O)C(C)N)c1 (centres undefined) [Methoxamine hydrochloride] | 1.013 ± 0.0058 | 1.01 ± 0.024 | 1.02 ± 0.011 | 0.997 ± 0.022 | 1.023 ± 0.0058 | 1.02 ± 0.023
CCCCC/C=C\C/C=C\C/C=C\C/C=C\CCCC(=O)NCC(=O)O [N-arachidonylglycine] | 0.9867 ± 0.0049 | 1.01 ± 0.025 | 1.003 ± 0.0064 | 0.9935 ± 0.005 | 0.994 ± 0.017 | 1 ± 0.014
C/C(O)=C(\C#N)C(=O)Nc1cc(Br)ccc1Br | 0.976 ± 0.018 | 0.928 ± 0.026 | 0.9763 ± 0.0055 | 1 ± 0.085 | 0.993 ± 0.0078 | 0.997 ± 0.013
Cc1ccccc1-n1c(Cn2ncc3c(N)ncnc32)nc2cccc(C)c2c1=O | 0.9987 ± 0.0099 | 0.995 ± 0.026 | 1 ± 0.025 | 1.02 ± 0.015 | 0.99267 ± 0.00058 | 0.982 ± 0.012
C[C@@]12C(=O)OC(=O)[C@]1(C)[C@H]1CC[C@@H]2O1 [Cantharidin] | 0.9967 ± 0.0035 | 0.00641 ± 0.0033 | 1.05 ± 0.021 | 0.12 ± 0.057 | 0.9873 ± 0.0032 | 0.00459 ± 0.0027
CCCC(C)(COC(N)=O)COC(=O)NC(C)C (centres undefined) [Carisoprodol] | 0.994 ± 0.019 | 0.997 ± 0.012 | 1.01 ± 0.014 | 0.991 ± 0.0014 | 1.01 | 1.013 ± 0.0058
COc1ccc2c3c1O[C@H]1C(=O)CC[C@@]4(O)C(C2)N(CC2CC2)CCC314 (some centres undefined) [3-Methoxynaltrexone hydrochloride] | 0.9917 ± 0.0068 | 0.99 ± 0.018 | 0.985 ± 0.013 | 1.02 ± 0.07 | 0.9977 ± 0.0025 | 0.998 ± 0.013
Cc1sc2c(c1C)C(c1ccc(Cl)cc1)=NC(CC(N)=O)c1nnc(C)n1-2 (centres undefined) | 0.9993 ± 0.0092 | 0.996 ± 0.023 | 0.9503 ± 0.0067 | 0.964 ± 0.028 | 0.958 ± 0.037 | 0.826 ± 0.015
